# PubChem BioAssay AID1508621 (National Center for Advancing Translational Sciences (NCATS), 2021)
# The shares of active, inactive and inconclusive entries below differ from those in the screen. Potencies of inconclusive entries are doubtful fits and often do not repeat. Calls of active or inactive are those of the source. Calls follow the shape of the dose curve; as a rule, active = well fitted inhibition curve with a large enough effect; inconclusive = small, poorly fitted or top-dose-only effect; inactive = no such curve, though single readings can be large or run the other way.
# Experiment: Confirmatory qHTS for Identification of Small Molecule Inhibitors of Huntingtin Promoter Activity; also: nearly all actives have a fitted effect of over 65% in size
# Settings: HEK293 HTT promoter firefly luciferase reporter, 24 h; series mostly up to 57.5 µM
# Summary of the method: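 Plated reporter HEK293 cells (24 h) received library compounds at up to 57.5 uM final or 50 uM PTC124, incubated 24 h at 37C; firefly luciferase luminescence was then recorded with Dual-Glo reagent.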
# Potency is read from the fitted curve at half-maximal effect; tags tell the direction and shape of the fitted curve.
row,Structure (SMILES),Potency
1,CCOC(=O)c1cc(-c2ccccc2)n(-c2cccc(C(=O)Nc3cccc(F)c3)c2)c1C,"inconclusive: 23.9 µM [inhibitor, partial curve]"
2,CCc1ccccc1-n1nnc(-c2nsc(NC(=O)c3ccc(C)c(C)c3)n2)c1C,"inconclusive: 3.79 µM [inhibitor, partial curve, poor fit]"
3,COc1ccc(C2=CC(c3ccccc3Cl)n3nc(-c4ccc(Cl)cc4)nc3N2)cc1 (stereo not given),"inconclusive: 23.9 µM [inhibitor, partial curve, poor fit]"
4,O=C(Cn1c(=O)oc2cc(S(=O)(=O)N3CCCCC3)ccc21)NCc1ccc(F)cc1,"inconclusive: 15.1 µM [inhibitor, partial curve]"
5,COc1ccc(N2CCN(C(CNC(=O)c3ccc(C)cc3)c3ccc4c(c3)OCO4)CC2)cc1 (stereo not given),"inconclusive: 12 µM [inhibitor, partial curve]"
6,CCc1ccc(CNC(=O)c2sc3ncccc3c2-n2c(C)ccc2C)cc1,"inconclusive: 21.3 µM [inhibitor, single point]"
7,Cc1ccc(Nc2cc(C(=O)NC3CCCC3)c3ccccc3n2)cc1C,"inconclusive: 15.1 µM [inhibitor, partial curve]"
8,CCCCOc1ccc(CNC(=O)c2cc3n(n2)CCCN(Cc2ccc(C)cc2)C3=O)cc1,"inconclusive: 13.5 µM [inhibitor, partial curve]"
9,CC1CCN(C(=O)CN2c3ccc(Br)cc3-c3ccccc3S2(=O)=O)CC1,inactive
10,CCOC(=O)c1cc2c(=O)n3ccccc3nc2n(CC2CCCO2)c1=NC(=O)c1cc(C)cc(C)c1 (stereo not given),"inconclusive: 4.78 µM [inhibitor, partial curve]"
11,Cc1cccc(CS(=O)(=O)Cc2ccc(C(=O)NCc3ccc(Cl)cc3)o2)c1,"inconclusive: 10.7 µM [inhibitor, partial curve]"
12,O=C(Nc1cccc(F)c1)c1cnc2sc(N3CCCC3)nn2c1=O,"inconclusive: 2.69 µM [inhibitor, partial curve]"
13,CC1Cc2cc(S(=O)(=O)NCc3ccccc3Cl)ccc2N1C(=O)C1CCC1 (stereo not given),"inconclusive: 15.1 µM [inhibitor, partial curve]"
14,CC(=O)c1ccc(N2CCN(c3ncnc4onc(C)c34)CC2)cc1,"inconclusive: 3.79 µM [inhibitor, full curve]"
15,CC(C)Cc1ccc(S(=O)(=O)Nc2ccc3[nH]c(=O)[nH]c3c2)cc1,"inconclusive: 12 µM [inhibitor, partial curve]"
16,CCOc1ccc(CCNc2ncnc3onc(C)c23)cc1OCC,"inconclusive: 1.69 µM [inhibitor, full curve]"
17,COc1ccc(NC(=O)Cn2nc(C(F)(F)F)c3c2CCCC3)cc1OC,"inconclusive: 16.9 µM [inhibitor, partial curve]"
18,Cc1nc(N2CCCC2)ncc1C(=O)Nc1ccc(OC(F)(F)F)cc1,"inconclusive: 13.5 µM [inhibitor, partial curve]"
19,CCS(=O)(=O)c1ccc(C(=O)N2CCN(c3nc4c(OC)ccc(C)c4s3)CC2)cc1,"inconclusive: 15.1 µM [inhibitor, partial curve]"
20,CCC(C(=O)NCc1ccc(OC)c(OC)c1)n1nc(C)c2c(C)n(-c3ccc(C)cc3)nc2c1=O (stereo not given),"inconclusive: 15.1 µM [inhibitor, partial curve]"

row,Structure (SMILES),Potency
1,COc1ccc(C(=O)NCC(c2cccnc2)N2CCN(c3ccc(F)cc3)CC2)cc1 (stereo not given),"inconclusive: 19 µM [inhibitor, single point]"
2,CC(C)c1ccc(CNC(=O)c2ccc(N3CCCC3)c(NC(=O)NCc3ccc(F)cc3)c2)cc1,"inconclusive: 16.9 µM [inhibitor, single point]"
3,CCOc1ccc(S(=O)(=O)N(C(=O)c2ccncc2)c2ccc3oc(C)c(C(=O)OC)c3c2)cc1,"inconclusive: 7.57 µM [inhibitor, partial curve]"
4,O=S(=O)(c1ccc(-c2csc(=Nc3ccc(OC(F)(F)Cl)cc3)n2CCCO)cc1)N1CCCC1,active: 1.9 µM
5,COc1cc(OC)cc(C(=O)Nc2ccc3c(c2)CCCN3C(=O)c2cccs2)c1,"inconclusive: 26.9 µM [inhibitor, partial curve]"
6,O=c1cc(-c2ccccc2)oc2cc(O)cc(O)c12,inactive
7,COc1ccc(CNC(=O)c2ccc3c(c2)CCN3S(=O)(=O)c2ccc(C)cc2)cc1,"inconclusive: 12 µM [inhibitor, partial curve, poor fit]"
8,COc1ccccc1C1C=C(c2ccc(F)cc2)Nc2nc(-c3ccc(Cl)cc3)nn21 (stereo not given),"inconclusive: 37.9 µM [inhibitor, single point]"
9,CCOc1ccccc1CNC(=O)c1cc2c(=O)n(Cc3ccccc3)ccc2nc1C,"inconclusive: 19 µM [inhibitor, partial curve]"
10,O=C(COCc1cc(-c2ccc3c(c2)OCO3)on1)N1CCN(c2cccc(C(F)(F)F)c2)CC1,"inconclusive: 26.9 µM [inhibitor, single point]"
11,Cc1cc(C)c(S(=O)(=O)NCCc2sc3nc(-c4ccc(F)cc4)nn3c2C)c(C)c1,"inconclusive: 9.53 µM [inhibitor, partial curve, poor fit]"
12,Cc1ccc(C)c(N2CCN(C(=O)Cn3cnc4nc5c(cc4c3=O)CCCC5)CC2)c1,"inconclusive: 23.9 µM [inhibitor, partial curve]"
13,COc1ccc(-n2ccnc2SCC(=O)Nc2cccc(OC)c2)cc1,"inconclusive: 21.3 µM [inhibitor, partial curve]"
14,Cc1noc2ncnc(NCc3cccc(Cl)c3)c12,"inconclusive: 7.57 µM [inhibitor, partial curve]"
15,COc1cccc(NS(=O)(=O)c2ccc3[nH]cc(C(=O)NCCc4ccc(C)cc4)c(=O)c3c2)c1,"inconclusive: 23.9 µM [inhibitor, partial curve, poor fit]"
16,CCOc1ccc(-c2nc(CSCC(=O)NCCc3ccccc3)c(C)o2)cc1,"inconclusive: 3.38 µM [inhibitor, full curve]"
17,CCn1cc(C(=O)N2CCN(c3ccc(C)cc3)C(C)C2)c(=O)c2cc(S(=O)(=O)N3CCCC3)ccc21 (stereo not given),inactive
18,Cc1cccc(N2CCN(S(=O)(=O)c3ccc4c(c3)CCCN4C(=O)C3CCC3)CC2)c1C,"inconclusive: 21.3 µM [inhibitor, partial curve]"
19,Cc1ccc(CCNC(=O)C2CCN(c3nnc(-n4cccc4CNc4ccc(C)cc4)s3)CC2)cc1,"inconclusive: 15.1 µM [inhibitor, partial curve]"
20,O=C(NCC(c1cccnc1)N1CCN(Cc2ccccc2)CC1)C(=O)Nc1ccc(Cl)cc1 (stereo not given),"inconclusive: 12 µM [inhibitor, partial curve]"
